Source: the supplement of paper PMC8728848
The other results are listed elsewhere or left out.

Key:
Test in all cases: glycan array binding signal (z-score within array); higher = stronger binding
Details in all cases: glycan notation: IUPAC condensed, linker removed
[1] = target: GlcNAc(b1-3)Gal(b1-4)Glc
Method in brief: (§1)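 Negative Z-scores can be read as non-binding. The Z-score is calculated within each array and then averaged across arrays of one protein sequence at different concentrations or buffers and across linkers. Arrays, 3228 in all, were curated from the Consortium for Functional Glycomics database and kept only where the protein sequence was available.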

[2] = target: GlcNAc(b1-3)Gal(b1-4)GlcNAc
Method in brief: as §1

[3] = target: GlcNAc(b1-3)Gal(b1-4)GlcNAc(b1-2)Man(a1-3)[GlcNAc(b1-3)Gal(b1-4)GlcNAc(b1-2)Man(a1-6)]Man(b1-4)GlcNAc(b1-4)GlcNAc
Method in brief: as §1

[4] = target: GlcNAc(b1-3)Gal(b1-4)GlcNAc(b1-2)Man(a1-3)[GlcNAc(b1-3)Gal(b1-4)GlcNAc(b1-2)Man(a1-6)]Man(b1-4)GlcNAc(b1-4)[Fuc(a1-6)]GlcNAc
Method in brief: as §1

[5] = target: GlcNAc(b1-3)Gal(b1-4)GlcNAc(b1-2)[GlcNAc(b1-3)Gal(b1-4)GlcNAc(b1-6)]Man(a1-6)[GlcNAc(b1-3)Gal(b1-4)GlcNAc(b1-2)Man(a1-3)]Man(b1-4)GlcNAc(b1-4)GlcNAc
Method in brief: as §1

[6] = target: GlcNAc(b1-3)Gal(b1-4)GlcNAc(b1-3)Gal(b1-4)GlcNAc
Method in brief: as §1

[7] = target: GlcNAc(b1-3)Gal(b1-4)GlcNAc(b1-3)Gal(b1-4)GlcNAc(b1-2)Man(a1-3)[GlcNAc(b1-3)Gal(b1-4)GlcNAc(b1-3)Gal(b1-4)GlcNAc(b1-2)Man(a1-6)]Man(b1-4)GlcNAc(b1-4)GlcNAc
Method in brief: as §1

[8] = target: GlcNAc(b1-3)Gal(b1-4)GlcNAc(b1-3)Gal(b1-4)GlcNAc(b1-2)Man(a1-3)[GlcNAc(b1-3)Gal(b1-4)GlcNAc(b1-3)Gal(b1-4)GlcNAc(b1-2)Man(a1-6)]Man(b1-4)GlcNAc(b1-4)[Fuc(a1-6)]GlcNAc
Method in brief: as §1

[9] = target: GlcNAc(b1-3)Gal(b1-4)GlcNAc(b1-3)Gal(b1-4)GlcNAc(b1-2)[GlcNAc(b1-3)Gal(b1-4)GlcNAc(b1-3)Gal(b1-4)GlcNAc(b1-6)]Man(a1-6)[GlcNAc(b1-3)Gal(b1-4)GlcNAc(b1-3)Gal(b1-4)GlcNAc(b1-2)Man(a1-3)]Man(b1-4)GlcNAc(b1-4)[Fuc(a1-6)]GlcNAc
Method in brief: as §1

[10] = target: GlcNAc(b1-3)Gal(b1-4)GlcNAc(b1-3)Gal(b1-4)GlcNAc(b1-3)Gal(b1-4)GlcNAc(b1-2)Man(a1-3)[GlcNAc(b1-3)Gal(b1-4)GlcNAc(b1-3)Gal(b1-4)GlcNAc(b1-3)Gal(b1-4)GlcNAc(b1-2)Man(a1-6)]Man(b1-4)GlcNAc(b1-4)GlcNAc
Method in brief: as §1

[11] = target: GlcNAc(b1-3)Gal(b1-4)GlcNAc(b1-3)Gal(b1-4)GlcNAc(b1-3)Gal(b1-4)GlcNAc(b1-2)Man(a1-3)[GlcNAc(b1-3)Gal(b1-4)GlcNAc(b1-3)Gal(b1-4)GlcNAc(b1-3)Gal(b1-4)GlcNAc(b1-2)Man(a1-6)]Man(b1-4)GlcNAc(b1-4)[Fuc(a1-6)]GlcNAc
Method in brief: as §1

[12] = target: GlcNAc(b1-3)Gal(b1-4)GlcNAc(b1-3)Gal(b1-4)GlcNAc(b1-3)Gal(b1-4)GlcNAc(b1-2)[GlcNAc(b1-3)Gal(b1-4)GlcNAc(b1-3)Gal(b1-4)GlcNAc(b1-3)Gal(b1-4)GlcNAc(b1-6)]Man(a1-6)[GlcNAc(b1-3)Gal(b1-4)GlcNAc(b1-3)Gal(b1-4)GlcNAc(b1-3)Gal(b1-4)GlcNAc(b1-2)Man(a1-3)]Man(b1-4)GlcNAc(b1-4)[Fuc(a1-6)]GlcNAc
Method in brief: as §1

[13] = target: GlcNAc(b1-3)Gal(b1-4)GlcNAc(b1-3)Gal(b1-4)GlcNAc(b1-3)Gal(b1-4)GlcNAc(b1-3)Gal(b1-4)GlcNAc(b1-2)Man(a1-3)[GlcNAc(b1-3)Gal(b1-4)GlcNAc(b1-3)Gal(b1-4)GlcNAc(b1-3)Gal(b1-4)GlcNAc(b1-3)Gal(b1-4)GlcNAc(b1-2)Man(a1-6)]Man(b1-4)GlcNAc(b1-4)GlcNAc
Method in brief: as §1

[14] = target: GlcNAc(b1-3)Gal(b1-4)GlcNAc(b1-3)Gal(b1-4)GlcNAc(b1-3)Gal(b1-4)GlcNAc(b1-3)Gal(b1-4)GlcNAc(b1-2)Man(a1-3)[GlcNAc(b1-3)Gal(b1-4)GlcNAc(b1-3)Gal(b1-4)GlcNAc(b1-3)Gal(b1-4)GlcNAc(b1-3)Gal(b1-4)GlcNAc(b1-2)Man(a1-6)]Man(b1-4)GlcNAc(b1-4)[Fuc(a1-6)]GlcNAc
Method in brief: as §1

[15] = target: GlcNAc(b1-3)Gal(b1-4)GlcNAc(b1-3)Gal(b1-4)GlcNAc(b1-3)Gal(b1-4)GlcNAc(b1-3)Gal(b1-4)GlcNAc(b1-2)[GlcNAc(b1-3)Gal(b1-4)GlcNAc(b1-3)Gal(b1-4)GlcNAc(b1-3)Gal(b1-4)GlcNAc(b1-3)Gal(b1-4)GlcNAc(b1-6)]Man(a1-6)[GlcNAc(b1-3)Gal(b1-4)GlcNAc(b1-3)Gal(b1-4)GlcNAc(b1-3)Gal(b1-4)GlcNAc(b1-3)Gal(b1-4)GlcNAc(b1-2)Man(a1-3)]Man(b1-4)GlcNAc(b1-4)[Fuc(a1-6)]GlcNAc
Method in brief: as §1

[16] = target: GlcNAc(b1-3)Gal(b1-4)GlcNAc(b1-3)Gal(b1-4)GlcNAc(b1-3)GalNAc
Method in brief: as §1

[17] = target: GlcNAc(b1-3)Gal(b1-4)GlcNAc(b1-3)GalNAc
Method in brief: as §1

[18] = target: GlcNAc(b1-3)Gal(b1-4)GlcNAc(b1-3)[GlcNAc(b1-3)Gal(b1-4)GlcNAc(b1-3)]GalNAc
Method in brief: as §1

[19] = target: GlcNAc(b1-3)Gal(b1-4)GlcNAc(b1-6)[Gal(b1-3)]GalNAc
Method in brief: as §1

[20] = target: GlcNAc(b1-3)Gal(b1-4)GlcNAc(b1-6)[GlcNAc(b1-3)Gal(b1-3)]GalNAc
Method in brief: as §1

[21] = target: GlcNAc(b1-3)Gal(b1-4)GlcNAc(b1-6)[GlcNAc(b1-3)]Gal(b1-4)GlcNAc
Method in brief: as §1

[22] = target: GlcNAc(b1-3)GalNAc
Method in brief: as §1

[23] = target: GlcNAc(b1-3)Man
Method in brief: as §1

[24] = target: GlcNAc(b1-3)[GlcNAc(b1-4)][GlcNAc(b1-6)]GlcNAc
Method in brief: as §1

[25] = target: GlcNAc(b1-3)[GlcNAc(b1-6)]Gal(b1-4)GlcNAc
Method in brief: as §1

[26] = target: GlcNAc(b1-3)[GlcNAc(b1-6)]GalNAc
Method in brief: as §1

[27] = target: GlcNAc(b1-4)Gal(b1-4)GlcNAc
Method in brief: as §1

[28] = target: GlcNAc(b1-4)GlcNAc
Method in brief: as §1

[29] = target: GlcNAc(b1-4)GlcNAc(b1-4)GlcNAc
Method in brief: as §1

[30] = target: GlcNAc(b1-4)GlcNAc(b1-4)GlcNAc(b1-4)GlcNAc(b1-4)GlcNAc
Method in brief: as §1

[31] = target: GlcNAc(b1-4)GlcNAc(b1-4)GlcNAc(b1-4)GlcNAc(b1-4)GlcNAc(b1-4)GlcNAc
Method in brief: as §1

[32] = target: GlcNAc(b1-4)[GlcNAc(b1-6)]GalNAc
Method in brief: as §1

[33] = target: GlcNAc(b1-6)Gal(b1-4)GlcNAc
Method in brief: as §1

[34] = target: GlcNAc(b1-6)GalNAc
Method in brief: as §1

[35] = target: GlcNAc6S(b1-3)Gal(b1-4)GlcNAc
Method in brief: as §1

[36] = target: Kdn(a2-3)Gal(b1-3)GalNAc
Method in brief: as §1

[37] = target: Kdn(a2-3)Gal(b1-3)GlcNAc
Method in brief: as §1

B1: ECL (Erythrina cristagalli), Q6YD91 (protein)
chain: VETISFSFSEFEPGNNDLTLQGAAIITQSGVLQLTKINQNGMPAWDSTGRTLYTKPVHIWDMTTGTVASFETRFSFSIEQPYTRPLPADGLVFFMGPTKSKPAQGYGYLGVFNNSKQDNSYQTLAVEFDTFSNPWDPPQVPHIGIDVNSIRSIKTQPFQLDNGQVANVVIKYDASSKILLAVLVYPSSGAIYTIAEIVDVKQVLPEWVDVGLSGATGAQRDAAETHDVYSWSFHASLPETND
[1]
  glycan array binding signal (z-score): -0.388
[2]
  glycan array binding signal (z-score): -0.329
[3]
  glycan array binding signal (z-score): -0.29
[4]
  glycan array binding signal (z-score): 0.141
[5]
  glycan array binding signal (z-score): 0.514
[6]
  glycan array binding signal (z-score): -0.007
[7]
  glycan array binding signal (z-score): 0.644
[8]
  glycan array binding signal (z-score): 0.117
[9]
  glycan array binding signal (z-score): 0.14
[10]
  glycan array binding signal (z-score): 0.006
[11]
  glycan array binding signal (z-score): 0.001
[12]
  glycan array binding signal (z-score): 0.113
[13]
  glycan array binding signal (z-score): -0.023
[14]
  glycan array binding signal (z-score): -0.323
[15]
  glycan array binding signal (z-score): -0.342
[16]
  glycan array binding signal (z-score): -0.046
[17]
  glycan array binding signal (z-score): -0.257
[18]
  glycan array binding signal (z-score): -0.36
[19]
  glycan array binding signal (z-score): -0.235
[20]
  glycan array binding signal (z-score): -0.345
[21]
  glycan array binding signal (z-score): -0.2
[22]
  glycan array binding signal (z-score): -0.196
[23]
  glycan array binding signal (z-score): -0.121
[24]
  glycan array binding signal (z-score): -0.03
[25]
  glycan array binding signal (z-score): -0.162
[26]
  glycan array binding signal (z-score): -0.163
[27]
  glycan array binding signal (z-score): -0.303
[28]
  glycan array binding signal (z-score): -0.254
[29]
  glycan array binding signal (z-score): -0.165
[30]
  glycan array binding signal (z-score): -0.232
[31]
  glycan array binding signal (z-score): -0.146
[32]
  glycan array binding signal (z-score): -0.281
[33]
  glycan array binding signal (z-score): -0.23
[34]
  glycan array binding signal (z-score): -0.312
[35]
  glycan array binding signal (z-score): -0.102
[36]
  glycan array binding signal (z-score): -0.266
[37]
  glycan array binding signal (z-score): -0.227
